Test results reported in PubChem BioAssay AID504832 (National Center for Advancing Translational Sciences (NCATS), 2011).
About 18,000 (5.8%) of roughly 310,000 compounds were called active. The inconclusive results got no clear call from the source; some entries with a clear call stand among them for comparison. Calls come from the whole dose curve; as a rule, active = well fitted inhibition curve with a large enough effect; inconclusive = small, poorly fitted or top-dose-only effect, or another doubt; inactive = no such curve, though single readings can be large or run the other way. No potency is given beside an inconclusive call; the fits are too rough.

Experiment: Primary qHTS for delayed death inhibitors of the malarial parasite plastid, 48 hour incubation
Settings: P. falciparum luciferase growth in erythrocytes; series mostly up to 28.7 µM
Outline: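 In quantitative HTS format, infected erythrocytes bearing luciferase-reporter parasites were treated for a single generation at 37 C. Luminescence after adding detection reagent served as the growth measure.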
Potency is the fitted concentration of half-maximal effect; tags give direction and shape of the fitted curve.

SMILES | Potency
COc1ccc(OC)c(C(c2nnnn2C2CCCC2)N2CCc3ccccc3C2)c1 (stereo not drawn) | active: 2.94 µM
O=c1[nH]c(NNC(=S)NC2CCCCC2)nc2c1C1(CCCC1)Cc1ccccc1-2 | inactive
CCOC(=O)C1=C(O)/C(=C/c2cn(CC(=O)N3CCCC3)c3ccccc23)SC1=Nc1ccccc1 | active: 4.65 µM
CN(Cc1cccc(Cl)c1)C(=O)C1CCN(C(=O)Nc2ccccc2)CC1 | inconclusive [inhibitor, partial curve]
CC12COC3(P(=O)(c4ccccc4)c4ccccc4)CC1CCC23CP(=O)(c1ccccc1)c1ccccc1 (stereo not drawn) | active: 1.17 µM
O=C1c2cccnc2C(=O)N1Cc1ccccc1 | inactive
CCN(CC)S(=O)(=O)c1cccc(C(=O)N/N=C(\C)c2cccs2)c1 | inactive
Cc1ccc(S(=O)(=O)NCCN(CCNS(=O)(=O)c2ccc(C)cc2)S(C)(=O)=O)cc1 | inconclusive [inhibitor, single point]
COc1ccccc1CCC(=O)N(Cc1ccccc1)c1c(N)n(Cc2ccccc2)c(=O)[nH]c1=O | inconclusive [inhibitor, partial curve]
O=C(NCCCN1CCOCC1)C(c1ccccc1)c1ccccc1 | inactive
Cc1ccc(Cn2c(SCC(=O)NCc3ccco3)nc3ccsc3c2=O)cc1 | active: 13.1 µM
Cc1cc(S(=O)(=O)NCC(c2ccc3c(c2)OCO3)N2CCOCC2)ccc1F (stereo not drawn) | inconclusive [inhibitor, partial curve, poor fit]
O=C(COC(=O)CN1C(=O)COc2ccccc21)NC1CCCCC1 | inactive
CSCc1c(C(=O)NCCc2ccccn2)oc2ccccc12 | inconclusive [inhibitor, single point]
O=C(CCCN1C(=O)/C(=C/c2ccccc2Cl)SC1=S)NNC(=O)c1ccncc1 | inconclusive [inhibitor, single point]
CCOC(=O)[C@H](CCc1ccccc1)N[C@@H](C)C(=O)N1[C@H](C(=O)O)C[C@H]2CCCC[C@@H]21 | inactive
CCOc1ccc(C(F)(F)F)cc1NC(=O)COc1ccc(C(F)(F)F)cc1[N+](=O)[O-] | inactive
CCOC(=O)C1=C(COC(=O)C(CC)Oc2ccccc2)NC(=O)NC1C (stereo not drawn) | inactive
CC(C)CC(COCc1ccc(C(F)(F)F)cc1)N1CCN(C(=O)c2ccc(C(F)(F)F)cc2)CCC1=O (stereo not drawn) | inconclusive [inhibitor, single point]
CC(NC(=O)c1ccccc1OC(F)F)c1ccc(-n2ccnc2)cc1 (stereo not drawn) | inconclusive [inhibitor, single point]
COCCCn1c(=O)c2ccccc2n(Cc2ccccc2)c1=O | inconclusive [inhibitor, full curve, poor fit]
CCOC(=O)C1=C(CS(=O)(=O)c2ccc(C)c(C)c2)NC(=O)NC1c1ccc(O)cc1 (stereo not drawn) | inconclusive [inhibitor, full curve, poor fit]

SMILES | Potency
O=S(=O)(NCc1ccccc1)c1ccc(S(=O)(=O)N(Cc2ccccn2)C2CCCC2)cc1 | active: 10.4 µM
Cc1cc2nc(/C=C/c3cccnc3)[nH]c2cc1C | inactive
COc1ccc(NC(=O)CC(c2ccccc2)c2ccco2)cc1 (stereo not drawn) | inconclusive [inhibitor, partial curve]
CC(C)Cn1c(SCC(=O)N2CCc3ccccc3C2)nc2cc(Cl)ccc2c1=O | inconclusive [inhibitor, single point]
O=C(N/N=C/c1cccnc1)C1CC1(c1ccccc1)c1ccccc1 (stereo not drawn) | inconclusive [inhibitor, partial curve, poor fit]
CC(C)CC(=O)Nc1cccc(-c2csc(-c3ccccc3)n2)c1 | inconclusive [inhibitor, single point]
COc1ccc(C2C(C#N)=C(C)NC3=C2S(=O)(=O)c2ccccc23)cc1 (stereo not drawn) | inconclusive [inhibitor, single point]
CCN1CCN(Cc2ccc(NC(=O)c3ccc(C)c(NC(=O)c4cccc(-c5cn[nH]c(=O)c5)c4)c3)cc2C(F)(F)F)CC1 | active: 1.65 µM
O=[N+]([O-])c1cccc(CNC2CCCCCC2)c1 | inactive
O=C(COc1cccnc1[N+](=O)[O-])Nc1ccc(S(=O)(=O)N2CCOCC2)cc1 | inactive
O=C(Oc1c(-c2ccccc2)c(=O)n2c3c(cccc13)CC2)c1ccc(Cl)cc1 | inconclusive [inhibitor, partial curve, poor fit]
Cc1ccc(C)c(S(=O)(=O)N2CCCC2CNC(=O)C(=O)NCc2cccs2)c1 (stereo not drawn) | inconclusive [inhibitor, single point]
O=C(N/N=C/C=C\c1ccccc1[N+](=O)[O-])c1ccco1 | inconclusive [inhibitor, single point]
Cc1cc(N2C(=O)C(=O)/C(=C(/O)c3ccc(F)cc3)C2c2ccc(Cl)cc2)no1 (stereo not drawn) | active: 13.1 µM
CC(=O)N1C(C)c2ccccc2C(C)(C)CC12CCCCC2 (stereo not drawn) | inconclusive [inhibitor, single point]
COCCN(C(=O)COC(=O)c1ccc(C)o1)c1c(N)n(Cc2ccccc2)c(=O)[nH]c1=O | inconclusive [inhibitor, partial curve, poor fit]
Cc1csc(NC(=O)c2cc3c(s2)CCCC3)n1 | inconclusive [inhibitor, partial curve, poor fit]
CC1CCCC(C)N1S(=O)(=O)c1ccc(NC(=O)CCN2C(=O)C3CC=CCC3C2=O)cc1 (stereo not drawn) | inconclusive [inhibitor, single point]
Cc1cc(C)n2cc(CSc3nnnn3-c3ccccc3)nc2n1 | inactive
COc1cc(C(C)=O)ccc1OCC(=O)Nc1ccc(C)c(S(=O)(=O)N2CCCCCC2)c1 | inconclusive [inhibitor, partial curve]
CC1OC(O[C@H]2CC[C@]3(C)C4C=C[C@]56OC[C@@]7(CC[C@@H](C)[C@H](C)C75)[C@H](O)C[C@@]6(C)[C@]4(C)CC[C@H]3C2(C)C)C(OC2OC(CO)C(O)C(O)C2OC2OCC(O)C(O)C2O)C(O)C1O (stereo partly drawn) | inconclusive [inhibitor, partial curve, poor fit]
